Experimental data taken from PubChem BioAssay AID2528 (National Center for Advancing Translational Sciences (NCATS), 2010).
Hit rate of the full screen: of about 350,000 compounds, about 700 (0.2%) were called active. Inconclusive means that the source gave no clear call. Such entries were picked first, then a sample of the others. The call rests on the fitted dose curve; in most records, active means well fitted inhibition curve with a large enough effect; inconclusive means small, poorly fitted or top-dose-only effect; inactive means flat fitted curve, though single readings scatter. Potencies of inconclusive entries are left out as doubtful fits.

target: RecQ-like DNA helicase BLM (Homo sapiens) (UniProt P54132); test: qHTS Assay for Inhibitors of Bloom's syndrome helicase (BLM); settings: recombinant BLM DNA unwinding, fluorescence dequenching; series mostly up to 56.1 µM; activity change, negative = inhibition: at the top concentration; further: nearly all actives have a fitted effect of over 35% in size;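 on activity change, negative = inhibition: plate controls were vehicle for no effect and no enzyme for full effect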
Potency means the concentration at half of the fitted maximal effect; tags describe the fitted curve by direction and shape.

Sequence of UniProt P54132 (P54132 whole entry, looked up): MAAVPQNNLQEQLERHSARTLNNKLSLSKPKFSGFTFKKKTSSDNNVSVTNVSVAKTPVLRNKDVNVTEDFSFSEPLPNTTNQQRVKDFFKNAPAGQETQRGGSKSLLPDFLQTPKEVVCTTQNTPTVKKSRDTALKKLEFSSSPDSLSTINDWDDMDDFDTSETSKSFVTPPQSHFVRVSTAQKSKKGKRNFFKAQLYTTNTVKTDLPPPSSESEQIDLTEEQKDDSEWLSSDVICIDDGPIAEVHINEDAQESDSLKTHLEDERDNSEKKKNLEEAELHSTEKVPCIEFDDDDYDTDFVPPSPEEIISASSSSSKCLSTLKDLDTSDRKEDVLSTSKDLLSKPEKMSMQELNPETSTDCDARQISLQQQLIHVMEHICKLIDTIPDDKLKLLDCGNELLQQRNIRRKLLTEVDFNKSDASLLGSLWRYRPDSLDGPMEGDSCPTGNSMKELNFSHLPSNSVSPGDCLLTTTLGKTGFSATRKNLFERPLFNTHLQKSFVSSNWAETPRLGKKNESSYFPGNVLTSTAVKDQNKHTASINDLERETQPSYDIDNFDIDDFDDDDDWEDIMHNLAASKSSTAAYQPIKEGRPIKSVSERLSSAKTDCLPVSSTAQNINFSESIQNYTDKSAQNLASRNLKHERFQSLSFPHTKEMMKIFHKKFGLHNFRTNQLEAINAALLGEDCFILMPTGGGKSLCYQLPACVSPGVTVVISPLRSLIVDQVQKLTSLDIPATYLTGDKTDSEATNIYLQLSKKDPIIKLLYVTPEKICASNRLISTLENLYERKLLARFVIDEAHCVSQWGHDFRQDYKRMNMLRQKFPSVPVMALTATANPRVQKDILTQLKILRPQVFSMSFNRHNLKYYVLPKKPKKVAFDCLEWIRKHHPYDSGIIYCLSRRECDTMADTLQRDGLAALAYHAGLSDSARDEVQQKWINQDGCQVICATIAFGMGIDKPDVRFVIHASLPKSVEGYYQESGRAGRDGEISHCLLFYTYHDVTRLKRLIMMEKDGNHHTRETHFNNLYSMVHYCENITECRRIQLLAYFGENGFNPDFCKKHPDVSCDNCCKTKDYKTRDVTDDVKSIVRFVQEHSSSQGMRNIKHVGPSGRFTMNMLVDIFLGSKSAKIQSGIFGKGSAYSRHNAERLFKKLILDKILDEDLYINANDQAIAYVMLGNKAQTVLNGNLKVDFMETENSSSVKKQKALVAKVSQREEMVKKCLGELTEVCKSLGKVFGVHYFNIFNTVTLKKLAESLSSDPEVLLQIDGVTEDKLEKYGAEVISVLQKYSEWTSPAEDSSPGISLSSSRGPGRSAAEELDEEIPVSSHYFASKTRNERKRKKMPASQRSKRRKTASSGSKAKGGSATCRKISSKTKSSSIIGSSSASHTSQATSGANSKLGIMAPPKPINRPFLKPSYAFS

Row | Structure (SMILES) | activity change, negative = inhibition | Potency
1 | COc1ccccc1NC(=O)COC(=O)c1ccc([N+](=O)[O-])s1 | inactive: -7.12% | 
2 | CN(C(=O)c1cc2n(n1)C(C(F)(F)F)CC(c1ccco1)N2)c1ccc(OC(F)(F)F)cc1 (stereo not given) |  | inconclusive [inhibitor, single point]
3 | C[n+]1cccc2c(Br)ccc([O-])c21 |  | active: 20 µM
4 | O=C(O)C1Nc2c(O)cc(Cl)c([N+](=O)[O-])c2C2C=CCC12 (stereo not given) |  | active: 1.78 µM
5 | Cc1ncc(CO)c2c1Oc1nc(-c3ccc(F)cc3)nc(SCC(=O)N3CCCCC3)c1C2 | inactive: 4.2% | 
6 | CCOC(=O)c1c(NC(=O)C2C3C=CC(C3)C2C(=O)O)sc2c1CCC(CC)C2 (stereo not given) |  | inconclusive [inhibitor, single point]
7 | COC(=O)C1=C(C)N(c2ccc(C(=O)OC)cc2)C(=O)C1 | inactive: -9.06% | 
8 | Nc1ccc2nc(-c3cccc(-c4nc5ccc(N)cc5[nH]4)n3)[nH]c2c1 |  | active: 14.1 µM
9 | CC1C/C(=C/c2ccco2)C(=O)/C(=C/c2ccco2)C1 (stereo not given) | inactive: -20.2% | 
10 | COc1ccc(C(=O)N2CCN(Cc3ccccc3)CC2)cc1[N+](=O)[O-] | inactive: -3.11% | 
11 | O=C(CN1C(=O)c2ccccc2Sc2ncccc21)Nc1cccc(C(F)(F)F)c1 | inactive: -7.15% | 
12 | COC(=O)c1sc2cccc(F)c2c1S(=O)(=O)NCc1ccccc1Cl | inactive: -6.23% | 
13 | Cc1ccccc1CN1C(=O)C(C)S/C1=N/N=C/c1ccco1 (stereo not given) |  | inconclusive [inhibitor, partial curve]
14 | NC(=O)C1CC2(NC(=O)NC2=O)c2cc(F)ccc2O1 (stereo not given) | inactive: 2.27% | 
15 | COc1ccc(Cc2nnc(NC(=O)Cc3cccs3)s2)cc1OC |  | inconclusive [inhibitor, single point]
16 | Cc1cc(C)nc(N/N=C/C2=C(N3CCOCC3)C(=C/c3ccccc3)/CC2)n1 |  | inconclusive [inhibitor, single point]
17 | CN(C1=C(NC(=O)c2ccc(Cl)cc2)C(=O)c2ccccc2C1=O)c1ccccc1 | inactive: -3.88% | 
18 | Cc1nn(-c2ccccc2)c(Cl)c1/C=N/Nc1ccc(S(=O)(=O)Nc2ccccc2C(=O)O)cc1[N+](=O)[O-] |  | inconclusive [inhibitor, single point]

Row | Structure (SMILES) | activity change, negative = inhibition | Potency
19 | O=C(O)CC(CP(=O)(c1ccccc1)c1ccccc1)C(=O)O (stereo not given) | inactive: -4.21% | 
20 | CN(C)S(=O)(=O)c1cccc(NC(=S)Nc2cccc3cnccc23)c1 |  | active: 12.6 µM
21 | COc1ccc(CC(=O)Nc2ccc(C(=O)Nc3ccccc3C(=O)O)cc2)cc1OC | inactive: -8.68% | 
22 | Cc1cc2oc(C(=O)Nc3sc4c(c3C(=O)NCc3ccccc3)CCCC4)cc(=O)c2cc1C | inactive: -5.78% | 
23 | O=C1c2cccc3cccc(c23)N1Cc1cccc(F)c1 | inactive: -6.35% | 
24 | Cc1ccc(/C=C/C(=O)NCc2ccccn2)o1 |  | inconclusive [inhibitor, single point]
25 | CC(C)C(=O)NC(c1cccs1)c1cc([N+](=O)[O-])c2cccnc2c1O (stereo not given) |  | inconclusive [inhibitor, partial curve]
26 | CCc1cc[n+](C2=C([O-])c3ccccc3C(=O)/C2=N\S(=O)(=O)c2cccs2)cc1 |  | inconclusive [inhibitor, partial curve]
27 | COc1cc(/C=C2/C(=O)N(c3ccc([N+](=O)[O-])cc3)N=C2N2CCOCC2)ccc1O |  | inconclusive [inhibitor, single point]
28 | COc1cc2nc(N3CCN(C(=O)C4COc5ccccc5O4)CC3)nc(N)c2cc1OC (stereo not given) |  | inconclusive [inhibitor, single point]
29 | N#CC(C#N)=Cc1cc2ccccc2nc1N1CCCCC1 |  | inconclusive [inhibitor, single point]
30 | O=C(CN1CCCc2ccccc21)N/N=C/c1ccccc1 | inactive: -2.98% | 
31 | C=CCNS(=O)(=O)c1cccc2cc(C(=O)O)c(O)cc12 | inactive: -4.03% | 
32 | Cc1[nH][nH]c(=O)c1C(c1ccc(-c2ccc(Cl)c(C(=O)O)c2)o1)c1c(C)[nH][nH]c1=O |  | inconclusive [inhibitor, single point]
33 | CCCCC(CC)CN=C(N)NC(N)=NCCCCCCN=C(N)NC(N)=NCC(CC)CCCC (stereo not given) |  | inconclusive [inhibitor, single point]
34 | CC(C)C(C(=O)O)N1C(=O)/C(=C/C=C/c2ccco2)SC1=S (stereo not given) |  | inconclusive [inhibitor, single point]
35 | COc1ccc(Nc2oc(/C=C/c3ccc(OC)c(OC)c3)nc2C#N)cc1 | inactive: -6.04% | 
